Reference: PubChem BioAssay AID488969 (Vanderbilt High Throughput Screening Facility, 2010)
In all, about 110,000 compounds were measured (“z-score”: median about -0.1, highest 2% from about 2 on). Some of the results follow. Active and inactive are the calls of the source.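 The calls were made as follows: active = z-score in the third read window above 3 or below -3; inactive = the rest.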

These compounds were tested against Metabotropic glutamate receptor 8 (Rattus norvegicus) (UniProt P70579) (assay: mGluR8 Gi/Go-coupled signaling modulation – cell-based, rat, thallium flux, HTS, primary screen (AID 488969)). Conditions: HEK293 rat mGluR8, GIRK (G protein-gated inwardly rectifying potassium channel) thallium flux, FluoZin2; at 10 µM; stronger effect = higher value; submaximal glutamate (EC20) added with thallium.
Sequence of UniProt P70579 (P70579 whole entry, looked up): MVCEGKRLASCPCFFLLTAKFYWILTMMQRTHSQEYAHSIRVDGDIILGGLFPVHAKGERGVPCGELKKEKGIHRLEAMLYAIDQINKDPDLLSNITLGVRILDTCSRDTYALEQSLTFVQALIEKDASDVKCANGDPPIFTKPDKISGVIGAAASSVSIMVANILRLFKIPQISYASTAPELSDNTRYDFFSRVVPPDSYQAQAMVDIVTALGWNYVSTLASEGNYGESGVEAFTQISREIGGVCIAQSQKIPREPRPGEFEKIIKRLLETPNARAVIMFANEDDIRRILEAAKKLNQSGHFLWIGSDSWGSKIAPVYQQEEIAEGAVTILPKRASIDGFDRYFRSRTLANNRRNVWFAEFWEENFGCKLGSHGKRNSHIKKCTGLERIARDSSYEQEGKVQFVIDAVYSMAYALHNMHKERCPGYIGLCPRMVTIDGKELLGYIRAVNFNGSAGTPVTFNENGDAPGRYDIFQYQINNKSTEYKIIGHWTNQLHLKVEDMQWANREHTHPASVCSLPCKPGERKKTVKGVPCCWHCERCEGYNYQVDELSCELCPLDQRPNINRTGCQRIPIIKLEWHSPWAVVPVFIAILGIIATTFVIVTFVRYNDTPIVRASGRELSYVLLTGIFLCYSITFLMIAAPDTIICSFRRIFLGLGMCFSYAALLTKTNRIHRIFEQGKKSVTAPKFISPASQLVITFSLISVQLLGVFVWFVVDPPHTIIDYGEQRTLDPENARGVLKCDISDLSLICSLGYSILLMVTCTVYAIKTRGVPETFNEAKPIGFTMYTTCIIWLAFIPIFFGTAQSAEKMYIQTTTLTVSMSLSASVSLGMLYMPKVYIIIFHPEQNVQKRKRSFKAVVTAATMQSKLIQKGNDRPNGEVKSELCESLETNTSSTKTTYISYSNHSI
With `CCC(=O)N1Cc2ccccc2-c2ccccc2C1=O` the z-score was -0.718. `CC1(C)NC(=O)NC2(C)NC(=O)NC(C)(C)C12` (configuration not stated) was tested, and the z-score was active: -4.86. In the case of `O=c1c2[nH]c3ccccc3c2ncn1C1CCCCC1`, the z-score is reported as 0.256. Work on `Cc1c(C(=O)N2CCN(S(C)(=O)=O)CC2)oc2ccccc12` yielded a z-score of -0.216. `Cc1cccn2c(=O)c3cc(C(=O)NCCN4CCOCC4)c(=N)n(CCc4ccccc4)c3nc12` gave a z-score of -0.0779. `O=S(=O)(c1ccccc1)c1cnn(-c2ccccc2)c1-c1ccc(F)cc1` was tested, and the z-score was -0.165. `Cc1sc(NC(=O)c2ccc(Br)s2)c(C(N)=O)c1C` was tested, and the z-score was 0.0217. `COC(=O)CC1COc2ccccc2N1C(=O)c1ccc(OC)cc1` (configuration not stated) was tested, and the z-score was -0.081. `O=C(N/N=C/c1c(Cl)[nH]c2ccccc12)c1sc2ccccc2c1Cl` gave a z-score of -0.189. With `O=C(CSc1nnnn1-c1ccccc1)NCc1ccco1` the z-score was -0.769. Compound `O=C(Nc1ccc2c(c1)oc1ccccc12)c1ccc2c(c1)OCO2` has a z-score of 0.81. `CCC(=NCc1ccccc1)c1c(C(F)(F)F)[nH]n(-c2nc3ccccc3s2)c1=O` was tested, and the z-score was -0.629. For `Nc1c(N2CCCCC2)c(=O)[nH]c(=O)n1-c1ccccc1`, the z-score was 0.241. `CCN(CC(O)CON=C1c2ccccc2-c2ccccc21)S(=O)(=O)c1ccc(C)cc1` (configuration not stated) showed a z-score of -0.273. Work on `Nc1cc(N)nc(SCCOc2ccccc2)n1` yielded a z-score of 0.723. In the case of `COc1ccc(N(CC(=O)Nc2ccc3c(c2)OCO3)S(=O)(=O)c2ccc(F)cc2)cc1`, the z-score is reported as -0.147. In the case of `O=C(NCC1CCCO1)c1cccc(Br)c1` (configuration not stated), the z-score is reported as 0.348. `Cc1cc(C)c(NC(=O)CN2C(=O)NC3(CCCCC3)C2=O)c(Cl)c1` was tested, and the z-score was -0.23. With `O=C(c1ccco1)n1c(=S)nc2ccccn21` the z-score was 0.588. For `COc1ccc([N+](=O)[O-])cc1NC(=O)CSc1ccccc1`, the z-score was -0.482. Work on `O=C(CSc1ccccc1C(=O)NCCCN1CCCC1=O)NCc1ccco1` yielded a z-score of 0.246. `CC(=O)Nc1ccc(OCC(O)CN2CCN(Cc3ccccc3)CC2)cc1` (configuration not stated) was tested, and the z-score was 1.32. `O=C(CN(c1ccccc1)S(=O)(=O)c1ccccc1)NCCSc1nc2ccccc2s1` gave a z-score of -0.129. Compound `Clc1ccc(Oc2nnnn2-c2ccccc2)cc1` has a z-score of -0.47. With `CN(C)S(=O)(=O)c1cccc(C(=O)OCC(=O)Nc2ccccc2OC(F)F)c1` the z-score was 0.0874. Compound `C#CCOC(=O)CCCNc1ccc([N+](=O)[O-])cc1[N+](=O)[O-]` has a z-score of -0.102. `O=C(O)Cn1cc2c(n1)CCCC2` was tested, and the z-score was -0.125. `CCCNc1c(F)c(F)c2c(C)c3ccccc3nc2c1F` was tested, and the z-score was -0.741. For `O=C1/C(=C\c2ccccn2)SC(=S)N1Nc1ncc(C(F)(F)F)cc1Cl`, the z-score was active: 3.17. Work on `Cc1ccc(NC(=O)NC(=S)NC(=O)c2ccccc2)cc1` yielded a z-score of 1.68. `CCOc1ccc(NC(=O)C2CC(=O)N3CCCN=C3S2)cc1` (configuration not stated) showed a z-score of -0.444. Compound `COc1ccc(/C=C/C(=O)Nc2nc(N)n(-c3ccccc3)n2)cc1` has a z-score of -0.0927. `COc1ccc(C(=O)NC(=S)Nc2cc3oc4ccccc4c3cc2OC)cc1` was tested, and the z-score was -0.278. `O=C1CSC(c2ccccn2)N1c1ccc(Cl)c(Cl)c1` (configuration not stated) gave a z-score of -0.103. With `O=C(c1ccncc1)N1CCN(c2cccc(C(F)(F)F)c2)CC1` the z-score was 0.0507. In the case of `COc1ccc(C(=O)Nc2oc(-c3ccccc3)c(-c3ccccc3)c2C#N)cc1`, the z-score is reported as -0.265. `COc1ccccc1N(CC(O)CN1C(=O)NC(C)(C)C1=O)S(=O)(=O)c1ccc(C)cc1` (configuration not stated) showed a z-score of -0.247. `Cc1nc(N)sc1-c1nnc(SCC(=O)Nc2ccccc2C(F)(F)F)n1C` showed a z-score of -0.15. `O=C(CCN1CCCCC1)Nc1cccc(Cl)c1` showed a z-score of 0.437. With `CC(C)c1nc2ccccc2n1CCC(=O)O` the z-score was -0.0842. With `CCC(Sc1nc(C)cc(=O)[nH]1)C(=O)Nc1nc2c(s1)CCCC2` (configuration not stated) the z-score was -1.56. In the case of `CN(Cc1ccccc1)C(=O)c1oc(=O)c2ccccc2c1-c1ccccc1`, the z-score is reported as -0.543. `Cc1ccc(S(=O)(=O)NCCNC(=O)C2CCCNC2=O)cc1` (configuration not stated) was tested, and the z-score was 2.41. `C/C=C/C(=O)OCC(=O)Nc1nc2ccc(C)cc2s1` showed a z-score of 0.196. `CC(=O)NC(Cc1ccc(C(C)C)cc1)C(=O)NC1CCN(c2nc(C)cc(C)n2)CC1` (configuration not stated) was tested, and the z-score was 0.108. `COc1ccc(CCNC(=O)CSc2nc(-c3ccc(OC)c(OC)c3)ccc2C#N)cc1` was tested, and the z-score was -0.18. Work on `CC(=O)Nc1ccc(NC(=O)c2ccccc2S(=O)(=O)c2ccccc2[N+](=O)[O-])cc1` yielded a z-score of 1.36. Work on `COCCNC(=O)CN(C(=O)Cn1nnc2ccccc21)c1ccc(F)c(Cl)c1` yielded a z-score of 0.102. With `Clc1ccc(-c2nnc(SCc3cn4ccsc4n3)n2CC2CCCO2)cc1` (configuration not stated) the z-score was -0.00653. `CCc1ccccc1N1C(=O)c2cccc3c(N4CCOCC4)c([N+](=O)[O-])cc(c23)C1=O` gave a z-score of -0.147. For `CN1CCN(CCC(=O)N2c3ccccc3Sc3ccc(C(F)(F)F)cc32)CC1`, the z-score was 1.11. Compound `COCCOc1nc2ccccc2nc1C` has a z-score of -0.251. `Cc1cccc2cc(=O)[nH]c(C)c12` gave a z-score of 0.0682. In the case of `Cc1ccc(C2=NNC(C(O)C(O)C(O)C(C)O)S2)cc1` (configuration not stated), the z-score is reported as -0.0357. Compound `O=C(COc1ccc(S(=O)(=O)N2CCCC2)cc1Cl)NCc1ccc2c(c1)OCO2` has a z-score of 0.364. `Cc1ccc[n+](CC(=O)Nc2cc(C(F)(F)F)ccc2Cl)c1` was tested, and the z-score was 0.0194. Compound `O=C1c2oc3ccccc3c(=O)c2C(c2cccnc2)N1Cc1ccco1` (configuration not stated) has a z-score of 0.788.
